Measured values as given in PMC6919601, “Identification of Plasmodium dipeptidyl aminopeptidase allosteric inhibitors by high throughput screening” (PLoS ONE, 2019).
The whole screen tested about 110,000 compounds, of which about 230 (0.21%) showed an effect of 50% or more. Some of the results follow. Where a SMILES comes first, the peptide text is derived from it. [ ]: non-standard residue; d: D form. The star is where a group is joined. ξ: configuration not given here. Cbz = O=C(OCc1ccccc1)*; Boc = CC(C)(C)OC(=O)*; ξK = NCCCCC(N)C(=O)O

Target: DPAP1 (Plasmodium falciparum, UniProt Q8IIJ9)
Sequence (Q8IIJ9 whole entry, looked up): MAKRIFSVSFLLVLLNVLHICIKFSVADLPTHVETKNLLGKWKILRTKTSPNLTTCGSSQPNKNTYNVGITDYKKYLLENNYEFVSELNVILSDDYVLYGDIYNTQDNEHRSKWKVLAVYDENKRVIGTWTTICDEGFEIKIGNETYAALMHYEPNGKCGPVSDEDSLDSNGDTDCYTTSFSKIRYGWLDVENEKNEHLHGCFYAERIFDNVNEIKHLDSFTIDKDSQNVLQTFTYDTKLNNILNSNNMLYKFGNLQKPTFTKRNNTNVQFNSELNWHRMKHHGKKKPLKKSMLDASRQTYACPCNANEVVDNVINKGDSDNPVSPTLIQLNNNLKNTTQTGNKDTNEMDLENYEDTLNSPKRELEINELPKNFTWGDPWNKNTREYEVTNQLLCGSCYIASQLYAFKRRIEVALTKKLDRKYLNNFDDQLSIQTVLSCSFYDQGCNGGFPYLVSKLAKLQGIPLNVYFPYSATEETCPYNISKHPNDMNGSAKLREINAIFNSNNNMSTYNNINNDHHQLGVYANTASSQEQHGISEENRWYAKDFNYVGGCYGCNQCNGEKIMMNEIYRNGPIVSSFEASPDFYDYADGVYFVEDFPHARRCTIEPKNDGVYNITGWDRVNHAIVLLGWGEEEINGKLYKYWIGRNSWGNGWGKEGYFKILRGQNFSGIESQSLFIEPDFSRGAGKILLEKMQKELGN
Test: primary screen, percent inhibition; read by cleavage of a fluorogenic dipeptide substrate; higher = more effect of the substance
Design: species or system P. falciparum D10 trophozoite lysates; single well
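Further: 30 min substrate incubation versus DMSO and 10 µM JCP410 controls.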

Structure (SMILES) | % Inhibition @ 10 uM [%]
CN1CC(=O)N(C)c2ncn(C)c2C1=O | 0.0538
COc1ccc(NS(=O)(=O)c2ccc(NC(=O)COc3ccc(Br)cc3)cc2)cc1 | -10.2
Cc1cc(N2CCC(C(=O)N3CCN(C)CC3)CC2)n2nc(C)c(-c3ccc(Cl)cc3)c2n1 | -7.53
CC#CCCOc1nc(Cl)cn(-c2ccccc2)c1=O | -4
Cc1ccc(-c2nnc(SCC(=O)NC3CCCCC3)n2C)c(Cl)c1 | 6.73
COc1ccc2nc(N(CCN(C)C)C(=O)CCc3ccccc3)sc2c1 | -4.73
CCC12CN3CC(C)(CN(C1)C3c1ccc(OC)c(OC)c1)C2=O (stereo not shown) | 2.05
Cc1ccccc1-n1nc2c(c1NC(=O)C(C)Oc1ccccc1)CS(=O)(=O)C2 (stereo not shown) | -1.28
CC1(N2CCCCC2)C(=O)c2ccccc2C1=O | -1.84
c1ccc(-n2nnnc2CSc2nc3ccccc3s2)cc1 | 2.19
CN(C)C(=O)N1CCC(C(=O)NCc2cccs2)CC1 | -3.12
CC1SC2(C(=O)Nc3ccccc32)N(c2cccc(Cl)c2)C1=O (stereo not shown) | 2.01
Cc1cc(C)c(S(=O)(=O)NCC(=O)NC2CC2)c(C)c1 | -0.992
CCOc1ccccc1/C=C(\C#N)c1nc(-c2ccc(-c3ccccc3)cc2)cs1 | -2.32
COc1cc(C2SC(NC(C)=O)=NN2C(C)=O)ccc1OCc1ccccc1 (stereo not shown) | 26.2
O=C(Nc1ccccc1)OC[C@@H]1CCCN2CCCC[C@H]12 | -2.42
CCNC(=O)C1CCCN1S(=O)(=O)c1ccc(OC)cc1 (stereo not shown) | -4.64
CC(C)(C)OC(=O)N1CCc2[nH]ncc2C1 | -2.83
COCCNC(=O)CCc1c(C)nc2nc(-c3cc(OC)cc(OC)c3)nn2c1C | 1.26
O=C(NCCc1ccccc1)c1cccnc1Cl | 0.0504
O=C(c1ccccc1F)N(Cc1ccccc1)Cc1ccccc1 | 1.41
CNc1cc(-n2cccn2)nc(-c2ccccc2)n1 | 4.22
O=C1CC(Cc2ccc(Cl)cc2)C(=O)N1c1ccccn1 (stereo not shown) | 19.4
O=C(O)c1cccc(N2C(=O)c3ccc4c5c(ccc(c35)C2=O)CC4)c1 | 10.6
COc1ccccc1-n1cnc2cc(C(=O)NC3CCCCCC3)ccc21 | 8.71

Structure (SMILES) | % Inhibition @ 10 uM [%]
Cc1cc(C)c2c(n1)nn1c(C)c(CCC(=O)NC(C)c3ccccc3)c(C)nc21 (stereo not shown) | 0.953
CN1c2ccccc2Sc2cc(N)ccc21 | -1.32
CO/C(O)=C1\C(C)=NC2=C(C(=O)CCC2)C1c1cccc(Br)c1 (stereo not shown) | -5.59
CCOC(=O)c1c(N)n(CCO)c2nc3ccccc3nc12 | 4.54
Cc1ccc(-c2nnc3[nH]c(=O)n(C)c(=O)c3n2)cc1 | -1.11
CCC[C@H](N[C@H](C(=O)NCC1CCCCC1)c1ccc(-c2ccc(S(C)(=O)=O)cc2)cc1)C(=O)NC1(C#N)CC1 | -8.26
CC(=O)Nc1ccc(S(=O)(=O)NCCc2ccccc2)cc1 | -14.2
Nc1c(C(=O)c2ccc(Br)cc2)sc2nc3c(cc12)CCC3 | -3.72
CCOC(=O)c1cc(CC)sc1/N=C/C1C(=O)c2ccccc2C1=O | -3.37
Cc1ccc(S(=O)(=O)N(CC(=O)Nc2ccc3c(c2)OCO3)Cc2ccc(Cl)cc2)cc1 | 0.142
O=C(/N=C/Nc1cccnc1)c1cccc(COCC(F)(F)F)c1 | 0.413
CC1CCN(C(=O)CN2C(=O)C(=O)c3ccccc32)CC1 | -3.41
c1ccc(C2CCC(N3CCN(c4ccccn4)CC3)CC2)cc1 (stereo not shown) | 1.57
Cc1nc2nc(C)c(CCC(=O)N3CCN(c4ccccn4)CC3)c(C)n2n1 | -8.27
Cc1sc2ncn3nnnc3c2c1-c1ccc(Cl)cc1 | -1.6
Cc1ccccc1CCNCc1ccc(C(=O)O)s1 | 0.124
CC1CCCCC1NCc1c(C(=O)O)n(Cc2ccccc2)c2ccccc12 (stereo not shown) | 3.54
CCc1nonc1NC(=O)COc1ccc(Cl)c(C)c1 | 1.67
Cc1cc(C)c2oc(C(=O)Nc3nnc(C(C)C)s3)cc(=O)c2c1 | 53.6
CCOCCCNC(=O)C1CCN(c2nnc(N3CCCC3=O)s2)CC1 | 2.07
CCCc1[nH]nc2c1C(c1ccc(Br)c(F)c1)C(C#N)=C(N)O2 (stereo not shown) | -4.4
CC(C)(C)OC(=O)NC(CCCCNC(=O)OCc1ccccc1)C(=O)NCC(=O)NCC(=O)O (stereo not drawn) (Boc-[ξK](Cbz)-Gly-Gly-OH) | -3.64
Cc1cc(C(=O)NC(C)c2ccccc2)n(-c2ccccc2)n1 (stereo not shown) | 1.55
C/C=C/N1C(=S)NC2(O)c3ccccc3C(=O)C12O (stereo not shown) | -2.87
O=C(Nc1nnc(Cc2ccc(Cl)cc2)s1)C1c2ccccc2Oc2ccccc21 | 5.17

Structure (SMILES) | % Inhibition @ 10 uM [%]
c1ccc(CCN2CN(Cc3cccnc3)c3nc4ccccc4n3C2)cc1 | 4.33
CC(C)CNS(=O)(=O)c1ccc(OCC(=O)Nc2cccc3ccccc23)c(Cl)c1 | 1.17
COc1cccc(N/C=C(/C#N)c2nc(-c3ccc(Cl)cc3)cs2)c1 | -9.12
CCn1c(C)c(C)c2cc(C(=O)NCCCN3CCc4ccccc4C3)ccc21 | -7.04
CCOc1ccc2[nH]c(SCC(=O)Nc3cc4c(cc3C(C)=O)OCO4)nc2c1 | 4.81
Cc1ccc(OCCOc2ccc(/C=C3/C(=N)N4C=CSC4=NC3=O)cc2Cl)cc1 | -3.28
COc1ccc(Cl)cc1S(=O)(=O)N1CCC(C(N)=O)(N2CCCCC2)CC1 | -5.33
O=C(NCc1ccccc1)NC1c2ccccc2CSc2ccccc21 (stereo not shown) | 1.39
COc1ccc(CCNC(=O)Cc2c(C)c3c(O)cc(C)cc3oc2=O)cc1 | 0.895
Cc1ccccc1CNc1nc2nc(C)c(C)c(O)n2n1 | 1
O=C(Cc1noc2ccccc12)NCc1ccccc1 | -7.32
CCOc1ccccc1N1CCN(Cc2ccco2)CC1 | -4.61
C=CCc1ccc(OCc2ccc(C(=O)O)o2)c(OC)c1 | -5.24
CC1=CCC2CC1C(c1ccc(N(C)C)cc1)OC2(C)C (stereo not shown) | 4.6
Cc1ccccc1OCC(=O)Nc1ccc(S(=O)(=O)N2CCCCC2)cc1 | 2.44
CC(C)c1ccc(Nc2nc(Cl)nc(N3CCCCC3)n2)cc1 | -5.44
CCOc1cccc(NC(=O)c2cccc(Cl)c2)c1 | -0.116
CC12CN3CC(c4ccccc4)(CN(C1)C3c1ccccc1O)C2=O (stereo not shown) | -2.91
Cc1cc(O)nc(SCc2nc3ccccc3c(=O)n2-c2ccccc2C)n1 | 2.27
CS(=O)(=O)C1=NSC2=NC(=O)/C(=C\c3ccc(OCc4ccccc4)c(Cl)c3)C(=N)N21 | 3.28
O=C(O)c1ccc(N2C(=O)C3C4C=CC(O4)C3C2=O)cc1 (stereo not shown) | -3.09
COc1ccc(CCNS(=O)(=O)c2ccc3ccccc3c2)cc1OC | 0.146
O=C(COc1ccccc1)N1CCN(c2ccccc2F)CC1 | -0.69
O=S1(=O)CCC(NC(=S)NC2CCS(=O)(=O)C2)C1 (stereo not shown) | -11.3
CC(C)CC(C(=O)O)N1C(=O)C2C3CC(C2C1=O)C1C(c2ccccc2)c2sc(O)nc2SC31 (stereo not shown) | -5.36

Structure (SMILES) | % Inhibition @ 10 uM [%]
COc1ccc(S(=O)(=O)N(CC(=O)N2CCOCC2)C2CCCCC2)cc1OC | 1.25
Cc1c2c(cc3c1oc(=O)c1ccccc13)CN(Cc1ccc3c(c1)OCO3)CO2 | 2.54
Cc1nn(CC(O)Cn2c3c(c4ccccc42)CCN(C)C3=O)c(C)c1Br (stereo not shown) | 5.07
Cn1nc(C(=O)N(Cc2ccco2)CC2CCCO2)c2c1-c1ccccc1SC2 (stereo not shown) | -1.72
CCOC(=O)c1cnc2c(C)ccc(Cl)c2c1O | 0.189
COc1ccc(-c2cc(C(=O)NCc3ccccn3)c3ccccc3n2)cc1OC | 3.72
COc1cc2ccccc2cc1C(=O)Nc1ccc(Cl)cn1 | 0.983
CCc1ccc(/C=c2/sc3nnc(-c4ccccc4)n3c2=O)cc1 | -3.74
Cc1nc(-n2cccc2)sc1C(=O)NCCCN1CCOCC1 | 1.03
CN1CCC(N(C)Cc2cc(F)ccc2F)CC1 | -6
CC(C)c1ccc(C(=O)N2CCN(c3ccc(F)cc3)CC2)cc1 | -3.26
O=C(CCc1nnc2n(Cc3ccccc3)c(=O)c3ccccc3n12)N1CCC(N2CCCCC2)CC1 | 4.16
CCOC(=O)c1cc2c3c(c1)C1C=CCC1C(c1ccccc1)N3CC1CC=CC21 (stereo not shown) | 16.7
Cc1ccc(C2CC(=O)N=C(NC(=O)c3ccc(C(C)(C)C)cc3)N2)cc1 (stereo not shown) | -1.96
CCCCn1c(-c2ccccc2)cn2c3c(=O)n(C)c(=O)n(C)c3nc12 | 5.38
O=C(O)c1c(CNCc2cccc(Cl)c2)c2ccccc2n1Cc1cccc(F)c1 | -0.517
O=C(Cc1cccs1)N1CCC(Cc2ccccc2)CC1 | -4.16
COc1ccc(-n2nnnc2C2CCN(S(=O)(=O)c3ccccc3C(F)(F)F)CC2)cc1 | 3.27
CCOC(=O)N1CCC(NC(=O)c2cc3cc4ccc(OC)cc4nc3s2)CC1 | 0.675
O=C(O)CNS(=O)(=O)/C=C/c1ccccc1 | -6.82
O=S(=O)(Nc1ccccc1O)c1ccc2ccccc2c1 | -0.424
CCC1(O)CC(c2ccccc2)=NN1C(=O)c1ccccc1F (stereo not shown) | 8.19
COc1ccc(/C=C2\CCC(C3CCCC3)C2=O)cc1Cn1cccn1 (stereo not shown) | 8.9
COc1ccccc1NC(=O)Cc1ccc(F)cc1F | 0.273
O=C(c1ccc(F)cc1)n1nc(-c2ccccc2)nc1NCc1ccccc1 | 2.31
